Results published in article PMC9911399, “Two distinct binding modes provide the RNA-binding protein RbFox with extraordinary sequence specificity”.
Positions count from the first letter of the chain named. The list shows a part of the results.

T1: RBFOX1 RRM RbFoxmut (Fox-RRM*) (Homo sapiens, UniProt Q9NWB1 109-208, R118D;E147R;N151S;E152T)
T1 sequence: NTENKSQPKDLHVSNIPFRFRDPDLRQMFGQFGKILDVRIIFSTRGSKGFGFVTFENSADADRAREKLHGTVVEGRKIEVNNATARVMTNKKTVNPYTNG

B1: UAGCAAC (DNA:RNA)
RNA: GGGAGACCGGAAUUCAGAUUGUCCUAGCAACUUAAAUCCCGUCGUAGCCACCA
DNA 1: CAATCTGAATTCCGGTCTCCC
DNA 2: TGGTGGCTACGACGGGATT
B2: AUUUGGG (DNA:RNA)
RNA: GGGAGACCGGAAUUCAGAUUGUCCAUUUGGGUUAAAUCCCGUCGUAGCCACCA
DNA 1: CAATCTGAATTCCGGTCTCCC
DNA 2: TGGTGGCTACGACGGGATT
B3: ACUACCU (DNA:RNA)
RNA: B2 RNA with U26C, U28A, G29C, G30C, G31U
DNA 1: CAATCTGAATTCCGGTCTCCC
DNA 2: TGGTGGCTACGACGGGATT
B4: CCUUUUU (DNA:RNA)
RNA: B2 RNA with A25C, U26C, G29U, G30U, G31U
DNA 1: CAATCTGAATTCCGGTCTCCC
DNA 2: TGGTGGCTACGACGGGATT
B5: UCCUGAA (DNA:RNA)
RNA: B2 RNA with A25U, U26C, U27C, G30A, G31A
DNA 1: CAATCTGAATTCCGGTCTCCC
DNA 2: TGGTGGCTACGACGGGATT
B6: GAAUCCC (DNA:RNA)
RNA: B1 RNA with U25G, G27A, C28U, A29C, A30C
DNA 1: CAATCTGAATTCCGGTCTCCC
DNA 2: TGGTGGCTACGACGGGATT
B7: CUCGGAA (DNA:RNA)
RNA: B2 RNA with A25C, U27C, U28G, G30A, G31A
DNA 1: CAATCTGAATTCCGGTCTCCC
DNA 2: TGGTGGCTACGACGGGATT
B8: GUGCAGA (DNA:RNA)
RNA: B1 RNA with U25G, A26U, A30G, C31A
DNA 1: CAATCTGAATTCCGGTCTCCC
DNA 2: TGGTGGCTACGACGGGATT
B9: GCCGGGG (DNA:RNA)
RNA: B2 RNA with A25G, U26C, U27C, U28G
DNA 1: CAATCTGAATTCCGGTCTCCC
DNA 2: TGGTGGCTACGACGGGATT
B10: UCAUCAA (DNA:RNA)
RNA: B1 RNA with A26C, G27A, C28U, A29C, C31A
DNA 1: CAATCTGAATTCCGGTCTCCC
DNA 2: TGGTGGCTACGACGGGATT
B11: GUUGUCA (DNA:RNA)
RNA: B2 RNA with A25G, U28G, G29U, G30C, G31A
DNA 1: CAATCTGAATTCCGGTCTCCC
DNA 2: TGGTGGCTACGACGGGATT
B12: CAAUCGU (DNA:RNA)
RNA: B2 RNA with A25C, U26A, U27A, G29C, G31U
DNA 1: CAATCTGAATTCCGGTCTCCC
DNA 2: TGGTGGCTACGACGGGATT
B13: GGUUUUG (DNA:RNA)
RNA: B2 RNA with A25G, U26G, G29U, G30U
DNA 1: CAATCTGAATTCCGGTCTCCC
DNA 2: TGGTGGCTACGACGGGATT
B14: GGCCACC (DNA:RNA)
RNA: B1 RNA with U25G, A26G, G27C, A30C
DNA 1: CAATCTGAATTCCGGTCTCCC
DNA 2: TGGTGGCTACGACGGGATT
B15: GAAACAU (DNA:RNA)
RNA: B1 RNA with U25G, G27A, C28A, A29C, C31U
DNA 1: CAATCTGAATTCCGGTCTCCC
DNA 2: TGGTGGCTACGACGGGATT
B16: CGUCGGU (DNA:RNA)
RNA: B2 RNA with A25C, U26G, U28C, G31U
DNA 1: CAATCTGAATTCCGGTCTCCC
DNA 2: TGGTGGCTACGACGGGATT
B17: GGUCCAA (DNA:RNA)
RNA: B1 RNA with U25G, A26G, G27U, A29C, C31A
DNA 1: CAATCTGAATTCCGGTCTCCC
DNA 2: TGGTGGCTACGACGGGATT
B18: AACAAGU (DNA:RNA)
RNA: B2 RNA with U26A, U27C, U28A, G29A, G31U
DNA 1: CAATCTGAATTCCGGTCTCCC
DNA 2: TGGTGGCTACGACGGGATT
B19: AUAAGAU (DNA:RNA)
RNA: B2 RNA with U27A, U28A, G30A, G31U
DNA 1: CAATCTGAATTCCGGTCTCCC
DNA 2: TGGTGGCTACGACGGGATT
B20: GGAUCGU (DNA:RNA)
RNA: B2 RNA with A25G, U26G, U27A, G29C, G31U
DNA 1: CAATCTGAATTCCGGTCTCCC
DNA 2: TGGTGGCTACGACGGGATT
B21: UUAUGCA (DNA:RNA)
RNA: B2 RNA with A25U, U27A, G30C, G31A
DNA 1: CAATCTGAATTCCGGTCTCCC
DNA 2: TGGTGGCTACGACGGGATT
B22: ACGAGCC (DNA:RNA)
RNA: B2 RNA with U26C, U27G, U28A, G30C, G31C
DNA 1: CAATCTGAATTCCGGTCTCCC
DNA 2: TGGTGGCTACGACGGGATT
B23: GACGUCC (DNA:RNA)
RNA: B1 RNA with U25G, G27C, C28G, A29U, A30C
DNA 1: CAATCTGAATTCCGGTCTCCC
DNA 2: TGGTGGCTACGACGGGATT
B24: GCCCCUC (DNA:RNA)
RNA: B1 RNA with U25G, A26C, G27C, A29C, A30U
DNA 1: CAATCTGAATTCCGGTCTCCC
DNA 2: TGGTGGCTACGACGGGATT
B25: CUAUUGA (DNA:RNA)
RNA: B2 RNA with A25C, U27A, G29U, G31A
DNA 1: CAATCTGAATTCCGGTCTCCC
DNA 2: TGGTGGCTACGACGGGATT
B26: UCUAUCU (DNA:RNA)
RNA: B2 RNA with A25U, U26C, U28A, G29U, G30C, G31U
DNA 1: CAATCTGAATTCCGGTCTCCC
DNA 2: TGGTGGCTACGACGGGATT
B27: AAAACUG (DNA:RNA)
RNA: B2 RNA with U26A, U27A, U28A, G29C, G30U
DNA 1: CAATCTGAATTCCGGTCTCCC
DNA 2: TGGTGGCTACGACGGGATT
B28: GGACAGC (DNA:RNA)
RNA: B1 RNA with U25G, A26G, G27A, A30G
DNA 1: CAATCTGAATTCCGGTCTCCC
DNA 2: TGGTGGCTACGACGGGATT
B29: CAACGUC (DNA:RNA)
RNA: B1 RNA with U25C, G27A, A29G, A30U
DNA 1: CAATCTGAATTCCGGTCTCCC
DNA 2: TGGTGGCTACGACGGGATT
B30: UGGCUUA (DNA:RNA)
RNA: B1 RNA with A26G, A29U, A30U, C31A
DNA 1: CAATCTGAATTCCGGTCTCCC
DNA 2: TGGTGGCTACGACGGGATT
B31: GGCCGUU (DNA:RNA)
RNA: B2 RNA with A25G, U26G, U27C, U28C, G30U, G31U
DNA 1: CAATCTGAATTCCGGTCTCCC
DNA 2: TGGTGGCTACGACGGGATT

Each binder was assayed against T1, RBFOX1 RRM RbFoxmut (Fox-RRM*) (assay: EMSA; HiTS-Eq, 1 nM pool, 10 min; buffer printed only for the single-RNA assays: 10 mM Tris pH 7.5, 150 mM NaCl, 3.4 mM EDTA, 0.001% NP-40, 30 C). Settings: tags: His6 N-terminal (pET28a); label: 5' 32P.
Procedure, shortened: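 Purified RbFox RRM (wild type or mutant) was equilibrated for 10 min in 50 µL with 1 nM of a 5′-radiolabelled pool of RNA with 7 randomized nucleotides, its flanks annealed to DNA oligonucleotides, across increasing protein concentrations. Free RNA was separated by 8% native PAGE, excised, reverse-transcribed, PCR-barcoded and sequenced on an Illumina HiSeq 2500. Relative association constants came from read-count changes of each variant against the control reaction, normalised to the cognate motif.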

| Binder | binding signal |
| --- | --- |
| B1 | 0.0671 KA relative to UGCAUGU |
| B2 | 0.0751 KA relative to UGCAUGU |
| B3 | 0.0797 KA relative to UGCAUGU |
| B4 | 0.0758 KA relative to UGCAUGU |
| B5 | 0.0821 KA relative to UGCAUGU |
| B6 | 0.0694 KA relative to UGCAUGU |
| B7 | 0.0897 KA relative to UGCAUGU |
| B8 | 0.12 KA relative to UGCAUGU |
| B9 | 0.0837 KA relative to UGCAUGU |
| B10 | 0.077 KA relative to UGCAUGU |
| B11 | 0.115 KA relative to UGCAUGU |
| B12 | 0.0684 KA relative to UGCAUGU |
| B13 | 0.191 KA relative to UGCAUGU |
| B14 | 0.0497 KA relative to UGCAUGU |
| B15 | 0.0964 KA relative to UGCAUGU |
| B16 | 0.142 KA relative to UGCAUGU |

| Binder | binding signal |
| --- | --- |
| B17 | 0.0995 KA relative to UGCAUGU |
| B18 | 0.0525 KA relative to UGCAUGU |
| B19 | 0.0909 KA relative to UGCAUGU |
| B20 | 0.354 KA relative to UGCAUGU |
| B21 | 0.192 KA relative to UGCAUGU |
| B22 | 0.113 KA relative to UGCAUGU |
| B23 | 0.0743 KA relative to UGCAUGU |
| B24 | 0.0605 KA relative to UGCAUGU |
| B25 | 0.122 KA relative to UGCAUGU |
| B26 | 0.0863 KA relative to UGCAUGU |
| B27 | 0.0621 KA relative to UGCAUGU |
| B28 | 0.0872 KA relative to UGCAUGU |
| B29 | 0.0611 KA relative to UGCAUGU |
| B30 | 0.129 KA relative to UGCAUGU |
| B31 | 0.0754 KA relative to UGCAUGU |
